This is an account of results in the supplement of paper PMC7826260.

This is one part of the list. Viral Rep nickase domains cut single-stranded DNA in vitro for 1 h at 37 °C with 3 µM enzyme; only the middle of the 90-letter strands is printed. The score is log2 (uncut reads / reads without enzyme); more negative means more cut, near 0 not cut, and no call is made. Reads are scaled to the total; where an enzyme cuts many sequences, the uncut ones exceed 0.

This assay has as its system T1, Rep nickase domain of tomato golden mosaic virus.
T1 sequence (residues 1-124 of Rep, tag left off): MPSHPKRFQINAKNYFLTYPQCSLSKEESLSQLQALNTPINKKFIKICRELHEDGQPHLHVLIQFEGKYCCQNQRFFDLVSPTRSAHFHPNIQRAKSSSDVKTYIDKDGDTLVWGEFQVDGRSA
In words: uncleaved DNA left, log2 of reads against the no-enzyme library (log2 ratio); higher = less cleavage (more negative = more Rep cleavage of the k-mer); sequences stand for … in CTCGTCCG…ACCGGAGA
The method, then: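 A pool of 90-nt single-stranded DNAs with seven random bases just before the constant AC of the nick site (name = the seven bases) was cut by 3 µM recombinant His6-SUMO-tagged Rep nickase domain (300 nM DNA, 50 mM HEPES pH 8.0, 50 mM NaCl, 1 mM MnCl2, 1 h, 37 °C, three replicates). Uncut DNA was amplified and sequenced.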
Turning to GTAGGCA, the “uncleaved DNA left (log2)” value was -0.0196.

For the sequence CAGATCT, the “uncleaved DNA left (log2)” value was -0.00878.

Turning to GCCTTTC, the “uncleaved DNA left (log2)” value was -0.231.

Turning to TGATGTG, the “uncleaved DNA left (log2)” value is -0.0617.

For TTAGCGT, the “uncleaved DNA left (log2)” value was -0.0271.

As to TGTAATG, the “uncleaved DNA left (log2)” value was 0.0792.

Regarding AGATTTA, the “uncleaved DNA left (log2)” value is 0.0368.

GCTTAAG: the “uncleaved DNA left (log2)” value was -0.0101.

Turning to GAGTCTA, the “uncleaved DNA left (log2)” value came to 0.0489.

Take GGTGTAA: the “uncleaved DNA left (log2)” value came to 0.146.

GGTCGCG: the “uncleaved DNA left (log2)” value was determined as 0.0299.

Turning to GACCTAA, the “uncleaved DNA left (log2)” value amounted to 0.00819.

As for CTTTGTT, the “uncleaved DNA left (log2)” value was -0.179.

For the sequence GTTTTTT, the “uncleaved DNA left (log2)” value was -0.0289.

As for CGAATCA, the “uncleaved DNA left (log2)” value stood at 0.126.

For the sequence TCACATT, the “uncleaved DNA left (log2)” value was determined as 0.0284.

Regarding TGAGACC, the “uncleaved DNA left (log2)” value is -0.144.

In the case of GAGTAAT, the “uncleaved DNA left (log2)” value was -0.1.

As for TCGTTGC, the “uncleaved DNA left (log2)” value is -0.223.

For AAGTTAT, the “uncleaved DNA left (log2)” value was -0.155.

With CAGTTTT, the “uncleaved DNA left (log2)” value was -0.575.

As for CTAGGTT, the “uncleaved DNA left (log2)” value amounted to 0.0307.

Turning to GGGGCCA, the “uncleaved DNA left (log2)” value stood at 0.0112.

Consider ATCACGG, for which the “uncleaved DNA left (log2)” value turned out to be 0.15.

Regarding AAATGAA, the “uncleaved DNA left (log2)” value stood at 0.0188.

As to GACTAGA, the “uncleaved DNA left (log2)” value was determined as 0.0661.

Regarding CCGTTTG, the “uncleaved DNA left (log2)” value was 0.00914.

As to CTCTGAG, the “uncleaved DNA left (log2)” value is -0.0482.

Turning to TCGGCCT, the “uncleaved DNA left (log2)” value is -0.161.

On to CAGGGTG, for which the “uncleaved DNA left (log2)” value turned out to be 0.0815.

On to GGATTAA, for which the “uncleaved DNA left (log2)” value amounted to 0.202.

On to TATAATT, for which the “uncleaved DNA left (log2)” value was -0.21.

As to AGAGTAC, the “uncleaved DNA left (log2)” value was 0.0701.

For TTAATAG, the “uncleaved DNA left (log2)” value amounted to 0.069.

With ACGCAAG, the “uncleaved DNA left (log2)” value came out at 0.0421.

Take CAAGGAC: the “uncleaved DNA left (log2)” value amounted to 0.0829.

For the sequence ATACTCG, the “uncleaved DNA left (log2)” value was determined as 0.0436.

With AGTTCTA, the “uncleaved DNA left (log2)” value stood at 0.0649.

With ATTTAGT, the “uncleaved DNA left (log2)” value was 0.0172.

As to ATGACCA, the “uncleaved DNA left (log2)” value is -0.15.
